This note sets out measurements from article PMC10444538.

By UniProt entry, the sequences of proteins in these tests, tags left out.
UniProt Q96L34: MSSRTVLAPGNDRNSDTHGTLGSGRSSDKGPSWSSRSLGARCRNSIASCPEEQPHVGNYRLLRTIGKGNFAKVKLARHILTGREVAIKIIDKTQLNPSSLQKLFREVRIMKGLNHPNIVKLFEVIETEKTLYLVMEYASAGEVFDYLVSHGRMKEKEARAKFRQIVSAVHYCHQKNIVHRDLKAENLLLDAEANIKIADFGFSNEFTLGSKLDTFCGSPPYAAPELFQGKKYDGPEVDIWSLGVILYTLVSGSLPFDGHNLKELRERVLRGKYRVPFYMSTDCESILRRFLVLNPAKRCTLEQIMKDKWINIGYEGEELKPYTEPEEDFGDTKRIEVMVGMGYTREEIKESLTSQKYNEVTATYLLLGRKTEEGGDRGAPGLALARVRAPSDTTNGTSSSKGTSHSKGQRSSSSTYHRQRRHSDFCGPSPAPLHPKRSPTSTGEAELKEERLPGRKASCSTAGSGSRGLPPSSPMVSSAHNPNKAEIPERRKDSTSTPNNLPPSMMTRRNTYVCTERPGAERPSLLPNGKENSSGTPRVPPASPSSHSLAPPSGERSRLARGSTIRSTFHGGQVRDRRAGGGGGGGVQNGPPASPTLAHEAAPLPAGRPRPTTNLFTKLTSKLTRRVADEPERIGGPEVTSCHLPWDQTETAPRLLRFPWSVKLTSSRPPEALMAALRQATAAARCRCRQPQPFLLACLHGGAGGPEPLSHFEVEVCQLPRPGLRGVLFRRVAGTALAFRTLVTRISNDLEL
UniProt Q8CIP4: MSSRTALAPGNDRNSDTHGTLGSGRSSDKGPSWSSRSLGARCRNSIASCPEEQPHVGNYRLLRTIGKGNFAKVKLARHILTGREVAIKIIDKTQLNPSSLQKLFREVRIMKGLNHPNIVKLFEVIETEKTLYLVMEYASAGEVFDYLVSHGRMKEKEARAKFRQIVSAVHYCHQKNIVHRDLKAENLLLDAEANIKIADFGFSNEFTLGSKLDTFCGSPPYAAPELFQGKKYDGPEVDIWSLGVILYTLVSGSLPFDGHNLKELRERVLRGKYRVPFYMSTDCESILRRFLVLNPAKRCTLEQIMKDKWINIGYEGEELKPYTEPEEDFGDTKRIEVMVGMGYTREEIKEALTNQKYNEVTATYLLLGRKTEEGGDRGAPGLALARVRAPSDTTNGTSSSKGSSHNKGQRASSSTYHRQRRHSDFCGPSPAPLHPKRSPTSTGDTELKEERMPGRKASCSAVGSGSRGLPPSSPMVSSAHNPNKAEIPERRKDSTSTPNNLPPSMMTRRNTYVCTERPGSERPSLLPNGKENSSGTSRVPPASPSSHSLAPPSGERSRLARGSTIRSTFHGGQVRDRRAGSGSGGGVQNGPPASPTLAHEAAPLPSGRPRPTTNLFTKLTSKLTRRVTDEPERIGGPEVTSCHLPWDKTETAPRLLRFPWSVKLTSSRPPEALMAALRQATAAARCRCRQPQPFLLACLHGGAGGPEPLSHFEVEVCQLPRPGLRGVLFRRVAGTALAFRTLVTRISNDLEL

Experiment [1] has as its target T1, Mitofusin 2 (MFN2), endogenous (mouse (endogenous in Neuro-2a and C2C12)) (UniProt Q80U63).
T1 sequence: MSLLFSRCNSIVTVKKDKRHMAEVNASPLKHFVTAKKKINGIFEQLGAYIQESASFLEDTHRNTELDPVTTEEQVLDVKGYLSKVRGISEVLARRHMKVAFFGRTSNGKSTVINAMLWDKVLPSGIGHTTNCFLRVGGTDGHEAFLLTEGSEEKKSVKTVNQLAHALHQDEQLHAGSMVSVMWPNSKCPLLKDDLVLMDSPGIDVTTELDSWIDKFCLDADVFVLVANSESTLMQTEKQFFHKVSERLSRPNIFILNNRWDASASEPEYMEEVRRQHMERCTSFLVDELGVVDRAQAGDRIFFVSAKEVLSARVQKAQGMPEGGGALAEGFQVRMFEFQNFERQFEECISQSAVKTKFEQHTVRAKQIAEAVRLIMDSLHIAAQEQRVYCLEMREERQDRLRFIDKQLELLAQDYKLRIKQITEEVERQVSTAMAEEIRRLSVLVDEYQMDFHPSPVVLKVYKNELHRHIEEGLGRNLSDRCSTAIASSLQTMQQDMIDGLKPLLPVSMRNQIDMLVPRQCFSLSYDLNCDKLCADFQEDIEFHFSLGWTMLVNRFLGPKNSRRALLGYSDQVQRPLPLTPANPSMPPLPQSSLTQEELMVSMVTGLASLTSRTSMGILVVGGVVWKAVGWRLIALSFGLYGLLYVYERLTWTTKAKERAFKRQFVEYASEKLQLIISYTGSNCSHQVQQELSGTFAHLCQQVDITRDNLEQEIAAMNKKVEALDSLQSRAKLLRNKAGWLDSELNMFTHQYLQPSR
The experiment in a line: proximity ligation; in situ PLA (Duolink) on fixed Neuro-2a cells with rabbit anti-MARK4 and mouse anti-MFN2 antibodies; no signals with a single antibody.

For experiment [2], the target named is T1, Mitofusin 2 (MFN2), endogenous (mouse (endogenous in Neuro-2a and C2C12)). The experiment in a line: co-IP; endogenous proteins; Neuro-2a cell lysates, IP with anti-MARK4 or anti-MFN2 antibodies and Protein A Sepharose beads, 4 h at 4°C; binding buffer 50 mM Tris-Cl pH 8.0, 150 mM NaCl, 5 mM EDTA, 5 mM EGTA, 10% glycerol, 10 mM NaF, 0.1% NP-40.
Experiment [3] has the same target. The experiment in a line: proximity ligation; in situ PLA (Duolink) on fixed C2C12 cells expressing mitoGFP or GFP-ER; colocalisation of PLA dots with the GFP-positive organelles.
Another experiment addresses human MARK4-MYC (human) (UniProt Q96L34). The experiment can be described thus: co-IP; lysates of 293T cells transfected with MARK4-MYC and FLAG-tagged MFN2 constructs; which tag was precipitated is not stated.
Experiment [4] concerns the target Microtubule affinity-regulating kinase 4 (MARK4), endogenous (mouse (endogenous in Neuro-2a and C2C12)) (UniProt Q8CIP4). The experiment can be described thus: co-IP; endogenous proteins; Neuro-2a cell lysates, IP with anti-MARK4 or anti-MFN2 antibodies and Protein A Sepharose beads, 4 h at 4°C; binding buffer 50 mM Tris-Cl pH 8.0, 150 mM NaCl, 5 mM EDTA, 5 mM EGTA, 10% glycerol, 10 mM NaF, 0.1% NP-40.

Results are given in words; binding and its absence hold for the method and conditions named. Binding seen in cells or lysates may run through a third protein. Some binding calls cover weakened binding; strength is not graded here. Where a sequence is shown, tags or fusion partners need not be part of it.

Consider “Microtubule affinity-regulating kinase 4 (MARK4), endogenous (from UniProt Q8CIP4 1-752) (enzyme)”, for which the binding result in experiment [1], in experiment [2] and in experiment [3] was “binds” in each case.

B1: FLAG-tagged full-length human MFN2 (amino acid 1-757) (protein, UniProt O95140-1 1-757)
chain: MSLLFSRCNSIVTVKKNKRHMAEVNASPLKHFVTAKKKINGIFEQLGAYIQESATFLEDTYRNAELDPVTTEEQVLDVKGYLSKVRGISEVLARRHMKVAFFGRTSNGKSTVINAMLWDKVLPSGIGHTTNCFLRVEGTDGHEAFLLTEGSEEKRSAKTVNQLAHALHQDKQLHAGSLVSVMWPNSKCPLLKDDLVLMDSPGIDVTTELDSWIDKFCLDADVFVLVANSESTLMQTEKHFFHKVSERLSRPNIFILNNRWDASASEPEYMEEVRRQHMERCTSFLVDELGVVDRSQAGDRIFFVSAKEVLNARIQKAQGMPEGGGALAEGFQVRMFEFQNFERRFEECISQSAVKTKFEQHTVRAKQIAEAVRLIMDSLHMAAREQQVYCEEMREERQDRLKFIDKQLELLAQDYKLRIKQITEEVERQVSTAMAEEIRRLSVLVDDYQMDFHPSPVVLKVYKNELHRHIEEGLGRNMSDRCSTAITNSLQTMQQDMIDGLKPLLPVSVRSQIDMLVPRQCFSLNYDLNCDKLCADFQEDIEFHFSLGWTMLVNRFLGPKNSRRALMGYNDQVQRPIPLTPANPSMPPLPQGSLTQEEFMVSMVTGLASLTSRTSMGILVVGGVVWKAVGWRLIALSFGLYGLLYVYERLTWTTKAKERAFKRQFVEHASEKLQLVISYTGSNCSHQVQQELSGTFAHLCQQVDVTRENLEQEIAAMNKKIEVLDSLQSKAKLLRNKAGWLDSELNMFTHQYLQPSR
As to B1, the binding entry with human MARK4-MYC (human) is “binds”.

B2: FLAG-tagged human MFN2 truncated construct N (amino acid 1-600) (domain or fragment, UniProt O95140-1 1-600)
chain: MSLLFSRCNSIVTVKKNKRHMAEVNASPLKHFVTAKKKINGIFEQLGAYIQESATFLEDTYRNAELDPVTTEEQVLDVKGYLSKVRGISEVLARRHMKVAFFGRTSNGKSTVINAMLWDKVLPSGIGHTTNCFLRVEGTDGHEAFLLTEGSEEKRSAKTVNQLAHALHQDKQLHAGSLVSVMWPNSKCPLLKDDLVLMDSPGIDVTTELDSWIDKFCLDADVFVLVANSESTLMQTEKHFFHKVSERLSRPNIFILNNRWDASASEPEYMEEVRRQHMERCTSFLVDELGVVDRSQAGDRIFFVSAKEVLNARIQKAQGMPEGGGALAEGFQVRMFEFQNFERRFEECISQSAVKTKFEQHTVRAKQIAEAVRLIMDSLHMAAREQQVYCEEMREERQDRLKFIDKQLELLAQDYKLRIKQITEEVERQVSTAMAEEIRRLSVLVDDYQMDFHPSPVVLKVYKNELHRHIEEGLGRNMSDRCSTAITNSLQTMQQDMIDGLKPLLPVSVRSQIDMLVPRQCFSLNYDLNCDKLCADFQEDIEFHFSLGWTMLVNRFLGPKNSRRALMGYNDQVQRPIPLTPANPSMPPLPQGSLTQEEFM
Turning to B2, the binding result with human MARK4-MYC (human) is on record as “binds”.

B3: FLAG-tagged human MFN2 truncated construct ΔN (amino acid 601-757) (domain or fragment, UniProt O95140-1 601-757)
chain: VSMVTGLASLTSRTSMGILVVGGVVWKAVGWRLIALSFGLYGLLYVYERLTWTTKAKERAFKRQFVEHASEKLQLVISYTGSNCSHQVQQELSGTFAHLCQQVDVTRENLEQEIAAMNKKIEVLDSLQSKAKLLRNKAGWLDSELNMFTHQYLQPSR
As for B3, the binding result in the experiment with human MARK4-MYC (human) was “no binding”.

B4: FLAG-tagged human MFN2 truncated construct G (amino acid 1-350) (domain or fragment, UniProt O95140-1 1-350)
chain: MSLLFSRCNSIVTVKKNKRHMAEVNASPLKHFVTAKKKINGIFEQLGAYIQESATFLEDTYRNAELDPVTTEEQVLDVKGYLSKVRGISEVLARRHMKVAFFGRTSNGKSTVINAMLWDKVLPSGIGHTTNCFLRVEGTDGHEAFLLTEGSEEKRSAKTVNQLAHALHQDKQLHAGSLVSVMWPNSKCPLLKDDLVLMDSPGIDVTTELDSWIDKFCLDADVFVLVANSESTLMQTEKHFFHKVSERLSRPNIFILNNRWDASASEPEYMEEVRRQHMERCTSFLVDELGVVDRSQAGDRIFFVSAKEVLNARIQKAQGMPEGGGALAEGFQVRMFEFQNFERRFEECIS
For B4, the binding entry with human MARK4-MYC (human) was “binds”.

B5: Mitofusin 2 (MFN2), endogenous (protein, UniProt Q80U63 1-757)
chain: T1 sequence
As to B5, the binding result in experiment [4] is “binds”.
